In article doi:10.1101/2024.11.06.622243, “The MRAP2 accessory protein directly interacts with melanocortin-3 receptor to enhance signaling” (bioRxiv, 2024):

Biological target: T1, HA-Halo-MRAP2 (human, UniProt Q96G30 1-205, CA-Sulfo646 dye on the Halo tag)
T1 construct: human melanocortin-2 receptor accessory protein 2 (MRAP2); pRK5 construct with an N-terminal signal peptide from rat mGluR2 before the tags; also called ss-HA-Halo-MRAP2; source: HEK293, transiently transfected, in lysate (LMNG-CHS); not shown: HA, N-terminal, kept; Halo, N-terminal, kept
T1 sequence (looked up): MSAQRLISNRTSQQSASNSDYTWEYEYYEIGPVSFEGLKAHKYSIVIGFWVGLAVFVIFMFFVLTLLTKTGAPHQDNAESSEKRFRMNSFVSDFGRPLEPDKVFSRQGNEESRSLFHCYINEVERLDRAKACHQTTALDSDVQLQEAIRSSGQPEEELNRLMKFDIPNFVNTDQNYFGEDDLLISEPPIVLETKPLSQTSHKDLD
Assay: single-molecule pull-down (SiMPull); two-colour SiMPull: HA-Halo-tagged bait (CA-Sulfo646) and FLAG-CLIP-tagged prey (BC-DY547) co-expressed in HEK293 cells (300 ng Halo and 600 ng CLIP plasmid), labelled before lysis in 0.5% LMNG/0.05% CHS, bait immobilised by biotinylated anti-HA antibody, co-localisation and photobleaching steps by TIRF
Details: partners not purified

- stoichiometry N: 1 MRAP2 per MC3R
B1: FLAG-CLIP-MC3R (receptor, human, UniProt P41968 1-323, looked up)
chain: MNASCCLPSVQPTLPNGSEHLQAPFFSNQSSSAFCEQVFIKPEVFLSLGIVSLLENILVILAVVRNGNLHSPMYFFLCSLAVADMLVSVSNALETIMIAIVHSDYLTFEDQFIQHMDNIFDSMICISLVASICNLLAIAVDRYVTIFYALRYHSIMTVRKALTLIVAIWVCCGVCGVVFIVYSESKMVIVCLITMFFAMMLLMGTLYVHMFLFARLHVKRIAALPPADGVAPQQHSCMKGAVTITILLGVFIFCWAPFFLHLVLIITCPTNPYCICYTAHFNTYLVLIMCNSVIDPLIYAFRSLELRNTFREILCGCNGMNLG
modifications: BC-DY547 dye on the CLIP tag
notes: human melanocortin-3 receptor (MC3R); pRK5 construct with an N-terminal signal peptide from rat mGluR2 before the tags; also called ss-FLAG-CLIP-MC3R; source: HEK293, transiently transfected, in lysate (LMNG-CHS); not shown: FLAG, N-terminal, kept; CLIP, N-terminal, kept
